Results taken from the antibiotic and cytotoxicity screens of Wong et al. (2023).
The other results are listed elsewhere or left out.

Tested on: HepG2
Assay: cytotoxicity call (relative viability < 0.9)
Conditions: 10 µM

`C[C@H](CO)N1C[C@H](C)[C@H](CN(C)S(=O)(=O)c2ccc(Cl)cc2)Oc2ccc(NC(=O)Cn3cnnn3)cc2C1=O` was tested. Which cytotoxicity call did it give?
Its cytotoxicity call is “inactive”.

Which cytotoxicity call does the source give for `CC(C)(O)C#Cc1ccc([C@H]2[C@@H](CO)N3CCCCN(S(C)(=O)=O)C[C@@H]23)cc1` here?
The cytotoxicity call was “inactive”.

With `O=C(O)c1n[nH]c2c1CCCC2` as the compound, how does the cytotoxicity call read?
Its cytotoxicity call is “inactive”.

Which cytotoxicity call does the source give for `O=C(Nc1ccc(Oc2ccc(Cl)cc2)c(Cl)c1)c1cc(I)cc(I)c1O` here?
Its cytotoxicity call is “active”.

With `Cc1noc(C)c1NC(=O)N(C)C[C@@H]1OCCCC[C@@H](C)Oc2ccc(NC(=O)Cc3ccccc3)cc2C(=O)N([C@@H](C)CO)C[C@H]1C` as the compound, how does the cytotoxicity call read?
The cytotoxicity call was “inactive”.

How did the cytotoxicity call turn out when `O=C(C[C@@H]1CC[C@@H]2[C@H](COC[C@H](O)CN2C(=O)C2CC2)O1)NCc1ccncc1` was run?
Its cytotoxicity call is “inactive”.

Which cytotoxicity call does the source give for `CN(C)C(=O)C[C@H]1CC[C@@H](NC(=O)C2CC2)[C@@H](CO)O1` here?
The cytotoxicity call was “inactive”.

`COc1ccc(S(=O)(=O)N(C)C[C@@H]2Oc3c(NS(=O)(=O)c4ccc(F)cc4)cccc3C(=O)N([C@H](C)CO)C[C@@H]2C)cc1` was tested. Which cytotoxicity call did it give?
Its cytotoxicity call is “inactive”.

Tested on: S. aureus RN4220
Assay: growth inhibition call (relative growth <= 0.2)
Conditions: 50 µM

Which growth inhibition call does the source give for `C[C@H]1CN([C@@H](C)CO)C(=O)Cc2cc(NC(=O)c3ccncc3)ccc2O[C@H]1CN(C)S(=O)(=O)c1cccs1` here?
The growth inhibition call was “inactive”.

`C[C@@H]1CN([C@@H](C)CO)C(=O)c2cc(C3=CCCCC3)cnc2O[C@@H]1CN(C)S(=O)(=O)c1cn(C)cn1` was tested. Which growth inhibition call did it give?
Its growth inhibition call is “inactive”.

Which growth inhibition call does the source give for `CNCCCN1c2ccccc2CCc2ccccc21.Cl` here?
Its growth inhibition call is “inactive”.

`C[C@H]1CN([C@@H](C)CO)C(=O)Cc2cc(NC(=O)c3ccncc3)ccc2O[C@@H]1CN(C)Cc1ccc(C(=O)O)cc1` was tested. Which growth inhibition call did it give?
The growth inhibition call was “inactive”.

Which growth inhibition call does the source give for `C[C@@H]1CCCCO[C@@H](CN(C)C(=O)Nc2ccccc2)[C@@H](C)CN([C@H](C)CO)C(=O)c2cc(NC(=O)Nc3ccccc3)ccc2O1` here?
Its growth inhibition call is “inactive”.

With `CNC[C@H]1OCCCC[C@H](C)Oc2ccc(NS(=O)(=O)c3c(C)noc3C)cc2C(=O)N([C@@H](C)CO)C[C@@H]1C` as the compound, how does the growth inhibition call read?
Its growth inhibition call is “inactive”.

Which growth inhibition call does the source give for `O=C(C[C@H]1CC[C@@H]2[C@H](COC[C@@H](O)CN2S(=O)(=O)c2ccccc2F)O1)NCc1ccccc1F` here?
The growth inhibition call was “inactive”.

For `Cc1ccc(S[C@]2(C(=O)NCc3ccccc3)CC(=O)N(Cc3ccccc3)[C@@H]2c2ccc(COC(=O)NCCCCCC(=O)NO)cc2I)cc1`, which growth inhibition call is on record?
Its growth inhibition call is “inactive”.

With `C[C@@H]1CN([C@@H](C)CO)C(=O)c2cc(-c3cccc(C(=O)N(C)C)c3)cnc2O[C@H]1CN(C)C(=O)Cc1ccccn1` as the compound, how does the growth inhibition call read?
The growth inhibition call was “inactive”.

`NC(=O)c1ccc[n+]([C@@H]2O[C@H](COP(=O)(O)OP(=O)(O)OC[C@H]3O[C@@H](n4cnc5c(N)ncnc54)[C@H](O)[C@@H]3O)[C@@H](O)[C@H]2O)c1` was tested. Which growth inhibition call did it give?
The growth inhibition call was “inactive”.

Which growth inhibition call does the source give for `COc1ccc(S(=O)(=O)N(C)C)cc1` here?
The growth inhibition call was “inactive”.

For `CN1CC2(CCN(C(=O)[C@H]3CCC(=O)N3)CC2)COc2ccccc2S1(=O)=O`, which growth inhibition call is on record?
The growth inhibition call was “inactive”.

How did the growth inhibition call turn out when `CC(C)CC(=O)C(=O)O` was run?
Its growth inhibition call is “inactive”.

How did the growth inhibition call turn out when `Cc1noc(C)c1S(=O)(=O)Nc1cccc2c1O[C@@H](CN(C)Cc1ccc3c(c1)OCO3)[C@@H](C)CN([C@H](C)CO)C2=O` was run?
The growth inhibition call was “inactive”.

How did the growth inhibition call turn out when `C[C@@H]1CN([C@H](C)CO)C(=O)c2cccc(NS(=O)(=O)c3cn(C)cn3)c2O[C@H]1CN(C)C(=O)Nc1ccc2c(c1)OCO2` was run?
Its growth inhibition call is “inactive”.

How did the growth inhibition call turn out when `CN(C)CC(=O)N1CC(=O)N2[C@@H](CO)[C@H](c3ccc(C#Cc4cccnc4)cc3)[C@@H]2C1` was run?
The growth inhibition call was “inactive”.

`CO[C@H](CN(C)S(=O)(=O)c1ccc(Cl)cc1)[C@H](C)CN([C@@H](C)CO)S(=O)(=O)c1cccc(Cl)c1` was tested. Which growth inhibition call did it give?
The growth inhibition call was “inactive”.

`C[C@@H]1CCCCO[C@@H](CN(C)S(=O)(=O)c2ccc(F)cc2)[C@H](C)CN([C@H](C)CO)C(=O)c2cc(NC(=O)C3CCCCC3)ccc2O1` was tested. Which growth inhibition call did it give?
The growth inhibition call was “inactive”.

`COC(=O)C[C@H]1CC[C@@H]2[C@H](COC[C@@H](O)CN2S(=O)(=O)c2ccc(F)cc2)O1` was tested. Which growth inhibition call did it give?
The growth inhibition call was “inactive”.

Which growth inhibition call does the source give for `C[C@H]1CN([C@@H](C)CO)C(=O)c2cc(-c3ccncc3)cnc2O[C@@H]1CN(C)C(=O)Nc1ccc2c(c1)OCO2` here?
The growth inhibition call was “inactive”.

For `C[C@@H](NC(=O)c1ccnn1C)[C@H]1CCCO1`, which growth inhibition call is on record?
Its growth inhibition call is “inactive”.

For `C[C@@H]1CCCCO[C@H](CN(C)C(=O)c2ccccc2)[C@@H](C)CN([C@H](C)CO)C(=O)c2cc(NC(=O)C3CCCCC3)ccc2O1`, which growth inhibition call is on record?
The growth inhibition call was “inactive”.

For `CC(=O)N[C@@H]1CC[C@@H](CCNC(=O)C2CC2)O[C@H]1CO`, which growth inhibition call is on record?
Its growth inhibition call is “inactive”.

Which growth inhibition call does the source give for `COc1ccc(NC(=O)N(C)C[C@H]2Oc3ccc(NC(=O)Cn4cnnn4)cc3C(=O)N([C@@H](C)CO)C[C@H]2C)cc1` here?
The growth inhibition call was “inactive”.

`C[C@H]1CN([C@@H](C)CO)C(=O)c2cccc(NC(=O)c3cnccn3)c2O[C@@H]1CN(C)S(C)(=O)=O` was tested. Which growth inhibition call did it give?
The growth inhibition call was “inactive”.

`C[C@@H](N)C1CCC(C(=O)Nc2ccncc2)CC1` (stereo partly drawn) was tested. Which growth inhibition call did it give?
Its growth inhibition call is “inactive”.

For `CN(C)CCCNC(=O)C[C@H]1CC[C@H]2[C@@H](COc3ccc(NC(=O)NC4CCCC4)cc3C(=O)N2C)O1`, which growth inhibition call is on record?
The growth inhibition call was “inactive”.

`CC(=O)N1[C@@H]2Cn3c(ccc(-c4ccccc4)c3=O)[C@H]1[C@@H](C(=O)N1CCN(C)CC1)[C@@H]2CO` was tested. Which growth inhibition call did it give?
Its growth inhibition call is “inactive”.

With `C[C@H](CO)N1C[C@H](C)[C@H](CN(C)Cc2ccc(-c3ccccc3)cc2)Oc2ccc(NS(=O)(=O)c3ccc(F)cc3)cc2CC1=O` as the compound, how does the growth inhibition call read?
The growth inhibition call was “inactive”.

Which growth inhibition call does the source give for `C[C@@H]1CCCCO[C@@H](CN(C)Cc2ccc(Cl)c(Cl)c2)[C@@H](C)CN([C@H](C)CO)C(=O)c2cc(NC(=O)C3CCCCC3)ccc2O1` here?
The growth inhibition call was “inactive”.

For `COc1cnc(-n2cnc(C)n2)c2c1c(C(=O)C(=O)N1CCN(C(=O)c3ccccc3)CC1)cn2COP(=O)(O)O`, which growth inhibition call is on record?
The growth inhibition call was “inactive”.

With `COc1ccc(S(=O)(=O)Nc2ccc3c(c2)C(=O)N([C@H](C)CO)C[C@@H](C)[C@H](CN(C)Cc2ccc(C(=O)O)cc2)OCCCC[C@@H](C)O3)cc1` as the compound, how does the growth inhibition call read?
The growth inhibition call was “inactive”.

For `C[C@H](CO)N1C[C@H](C)[C@H](CN(C)S(=O)(=O)c2ccc(Cl)cc2)Oc2ccc(NC(=O)Cn3cnnn3)cc2C1=O`, which growth inhibition call is on record?
The growth inhibition call was “inactive”.

Which growth inhibition call does the source give for `CC(C)(O)C#Cc1ccc([C@H]2[C@@H](CO)N3CCCCN(S(C)(=O)=O)C[C@@H]23)cc1` here?
Its growth inhibition call is “inactive”.

Which growth inhibition call does the source give for `O=C(O)c1n[nH]c2c1CCCC2` here?
Its growth inhibition call is “inactive”.

Which growth inhibition call does the source give for `O=C(Nc1ccc(Oc2ccc(Cl)cc2)c(Cl)c1)c1cc(I)cc(I)c1O` here?
Its growth inhibition call is “inactive”.

For `Cc1noc(C)c1NC(=O)N(C)C[C@@H]1OCCCC[C@@H](C)Oc2ccc(NC(=O)Cc3ccccc3)cc2C(=O)N([C@@H](C)CO)C[C@H]1C`, which growth inhibition call is on record?
The growth inhibition call was “inactive”.

`O=C(C[C@@H]1CC[C@@H]2[C@H](COC[C@H](O)CN2C(=O)C2CC2)O1)NCc1ccncc1` was tested. Which growth inhibition call did it give?
Its growth inhibition call is “inactive”.

How did the growth inhibition call turn out when `CN(C)C(=O)C[C@H]1CC[C@@H](NC(=O)C2CC2)[C@@H](CO)O1` was run?
The growth inhibition call was “inactive”.

`COc1ccc(S(=O)(=O)N(C)C[C@@H]2Oc3c(NS(=O)(=O)c4ccc(F)cc4)cccc3C(=O)N([C@H](C)CO)C[C@@H]2C)cc1` was tested. Which growth inhibition call did it give?
The growth inhibition call was “inactive”.
